The test system of the data set is male wistar rats. Nature of the data set: Toxicity test, oral administration for four days. Particulars: 100 mg/kg/day orally for four days.

The record followed here is patent EP0992240A1, “THERAPEUTIC AGENT FOR ERECTION FAILURE” (MOCHIDA PHARMACEUTICAL CO., LTD., priority 1997, dated 1998).

For the molecule `CC(C)(C)OC(=O)COc1cc2c(=O)c(Cc3cccnc3)cn3c4ccc(Br)cc4c(c1)c23` [Example 3, 10-bromo-2-t-butoxycarbonylmethyloxy-5-(3-pyridylmethyl)-4H-pyrido[3,2,1-jk]carbazol-4-one], the “abnormal change in body weight and general symptoms” value is given as “no abnormal change”. In addition, under “until the next morning of the completion of the administration”, the dead case result was “no dead case”.
